# Measured values: the supplement of paper PMC8728848
# This is one part of a sample in which the strongest signals are shown more often than they occur.
# Legend:
# Experiment in all cases: glycan array binding signal (z-score within array); higher = stronger binding
# Conditions in all cases: glycan notation: IUPAC condensed, linker removed
# Kdn(a2-3)Gal(b1-3)GlcNAc = test system: Kdn(a2-3)Gal(b1-3)GlcNAc
# How it was run: (§1)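 From the Consortium for Functional Glycomics database, 3228 arrays were curated, keeping only those whose protein sequence was available. Binding is given as a within-array Z-score averaged across arrays sharing a protein sequence and across linkers. Negative Z-scores can be read as non-binding.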
# Kdn(a2-3)Gal(b1-4)GlcNAc = test system: Kdn(a2-3)Gal(b1-4)GlcNAc
# How it was run: as §1
# [1] = test system: Kdn(a2-3)Gal(b1-4)[Fuc(a1-3)]GlcNAc
# How it was run: as §1
# [2] = test system: Man(a1-2)Man(a1-2)Man(a1-3)Man
# How it was run: as §1
# [3] = test system: Man(a1-2)Man(a1-6)[Man(a1-3)]Man(a1-6)[Man(a1-2)Man(a1-2)Man(a1-3)]Man
# How it was run: as §1
# [4] = test system: Man(a1-2)Man(a1-2)Man(a1-6)[Man(a1-3)]Man
# How it was run: as §1
# [5] = test system: Man(a1-2)Man(a1-3)[Man(a1-2)Man(a1-6)]Man(a1-6)[Man(a1-2)Man(a1-2)Man(a1-3)]Man
# How it was run: as §1
# [6] = test system: Man(a1-2)Man(a1-3)[Man(a1-2)Man(a1-6)]Man
# How it was run: as §1
# [7] = test system: Man(a1-2)Man(a1-6)[Man(a1-3)]Man(a1-6)[Man(a1-2)Man(a1-2)Man(a1-3)]Man(b1-4)GlcNAc(b1-4)GlcNAc
# How it was run: as §1
# Man(a1-2)Man(a1-3)Man = test system: Man(a1-2)Man(a1-3)Man
# How it was run: as §1
# [8] = test system: Man(a1-3)[Man(a1-6)]Man(a1-6)[Man(a1-3)]Man(b1-4)GlcNAc(b1-4)GlcNAc
# How it was run: as §1
# Kdn(a2-3)Gal(b1-4)Glc = test system: Kdn(a2-3)Gal(b1-4)Glc
# How it was run: as §1
# [9] = test system: Man(a1-3)[Man(a1-6)]Man(a1-6)[Man(a1-2)Man(a1-3)]Man(b1-4)GlcNAc(b1-4)GlcNAc
# How it was run: as §1
# [10] = test system: Man(a1-3)[Man(a1-6)]Man(a1-6)[Man(a1-3)]Man
# How it was run: as §1
# [11] = test system: Man(a1-2)Man(a1-2)Man(a1-3)[Man(a1-2)Man(a1-3)[Man(a1-2)Man(a1-6)]Man(a1-6)]Man(b1-4)GlcNAc(b1-4)GlcNAc
# How it was run: as §1
# Kdn(a2-3)Gal(b1-3)GalNAc = test system: Kdn(a2-3)Gal(b1-3)GalNAc
# How it was run: as §1
# [12] = test system: Man(a1-2)Man(a1-3)[Man(a1-2)Man(a1-6)]Man(a1-6)[Man(a1-2)Man(a1-2)Man(a1-3)]Man(b1-4)GlcNAc(b1-4)GlcNAc
# How it was run: as §1
substance,measurement,setting,value
M-Ficolin Y271F (Homo sapiens) (chain not printed),glycan array binding signal (z-score),Kdn(a2-3)Gal(b1-3)GlcNAc,0.162
same,glycan array binding signal (z-score),Kdn(a2-3)Gal(b1-4)GlcNAc,-0.257
same,glycan array binding signal (z-score),[1],-0.221
same,glycan array binding signal (z-score),[2],-0.608
same,glycan array binding signal (z-score),[3],-0.425
Collectin K1 (Homo sapiens) (chain not printed),glycan array binding signal (z-score),[2],1.65
same,glycan array binding signal (z-score),[4],1.94
same,glycan array binding signal (z-score),[5],13.8
same,glycan array binding signal (z-score),[6],2.62
same,glycan array binding signal (z-score),[7],1.88
Galectin-8 C-terminal CRD (Homo sapiens) (chain not printed),glycan array binding signal (z-score),[4],-0.347
same,glycan array binding signal (z-score),[6],-0.294
STIM-3 (Mus musculus) (chain not printed),glycan array binding signal (z-score),Kdn(a2-3)Gal(b1-3)GlcNAc,-1.02
same,glycan array binding signal (z-score),[2],3.14
same,glycan array binding signal (z-score),[4],2.57
M-Ficolin G221F A256V (Homo sapiens) (chain not printed),glycan array binding signal (z-score),[2],-0.361
same,glycan array binding signal (z-score),Man(a1-2)Man(a1-3)Man,-0.276
same,glycan array binding signal (z-score),[6],-0.312
M-Ficolin A256V (Homo sapiens) (chain not printed),glycan array binding signal (z-score),[4],-0.166
same,glycan array binding signal (z-score),[8],-0.144
M-Ficolin (Homo sapiens) (chain not printed),glycan array binding signal (z-score),Kdn(a2-3)Gal(b1-4)Glc,-0.232
same,glycan array binding signal (z-score),[2],-0.287
same,glycan array binding signal (z-score),[7],-0.155
Gal 8 long (Homo sapiens) (chain not printed),glycan array binding signal (z-score),[9],4.24
same,glycan array binding signal (z-score),[10],-0.185
VWF (Homo sapiens) (chain not printed),glycan array binding signal (z-score),[2],-0.255
same,glycan array binding signal (z-score),[4],-0.144
H-Ficolin (Homo sapiens) (chain not printed),glycan array binding signal (z-score),[11],-0.753
same,glycan array binding signal (z-score),[4],2.25
Gal 3 (Homo sapiens) (chain not printed),glycan array binding signal (z-score),Kdn(a2-3)Gal(b1-3)GalNAc,0.034
L-Ficolin (Homo sapiens) (chain not printed),glycan array binding signal (z-score),[4],-0.539
same,glycan array binding signal (z-score),[12],-0.486
Meso764 (Homo sapiens) (chain not printed),glycan array binding signal (z-score),[7],-0.696
same,glycan array binding signal (z-score),[8],0.261
Gal 8-short (Homo sapiens) (chain not printed),glycan array binding signal (z-score),Kdn(a2-3)Gal(b1-3)GlcNAc,1.72
